# Screen size: about 310,000 compounds; about 14,000 (4.5%) showed an effect of 50% or more. Effects have a minus sign here. This is one part of the list.
# Biological target: human ether-à-go-go-related gene (hERG) potassium channel (human, UniProt Q12809)
# Experiment: primary screen, population patch clamp on CHO cells stably expressing hERG
# 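Also: peak tail current of the secondary pulse compared with the same well before compound.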
# human ether-à-go-go-related gene (hERG) potassium channel, sequence (Q12809 whole entry, looked up): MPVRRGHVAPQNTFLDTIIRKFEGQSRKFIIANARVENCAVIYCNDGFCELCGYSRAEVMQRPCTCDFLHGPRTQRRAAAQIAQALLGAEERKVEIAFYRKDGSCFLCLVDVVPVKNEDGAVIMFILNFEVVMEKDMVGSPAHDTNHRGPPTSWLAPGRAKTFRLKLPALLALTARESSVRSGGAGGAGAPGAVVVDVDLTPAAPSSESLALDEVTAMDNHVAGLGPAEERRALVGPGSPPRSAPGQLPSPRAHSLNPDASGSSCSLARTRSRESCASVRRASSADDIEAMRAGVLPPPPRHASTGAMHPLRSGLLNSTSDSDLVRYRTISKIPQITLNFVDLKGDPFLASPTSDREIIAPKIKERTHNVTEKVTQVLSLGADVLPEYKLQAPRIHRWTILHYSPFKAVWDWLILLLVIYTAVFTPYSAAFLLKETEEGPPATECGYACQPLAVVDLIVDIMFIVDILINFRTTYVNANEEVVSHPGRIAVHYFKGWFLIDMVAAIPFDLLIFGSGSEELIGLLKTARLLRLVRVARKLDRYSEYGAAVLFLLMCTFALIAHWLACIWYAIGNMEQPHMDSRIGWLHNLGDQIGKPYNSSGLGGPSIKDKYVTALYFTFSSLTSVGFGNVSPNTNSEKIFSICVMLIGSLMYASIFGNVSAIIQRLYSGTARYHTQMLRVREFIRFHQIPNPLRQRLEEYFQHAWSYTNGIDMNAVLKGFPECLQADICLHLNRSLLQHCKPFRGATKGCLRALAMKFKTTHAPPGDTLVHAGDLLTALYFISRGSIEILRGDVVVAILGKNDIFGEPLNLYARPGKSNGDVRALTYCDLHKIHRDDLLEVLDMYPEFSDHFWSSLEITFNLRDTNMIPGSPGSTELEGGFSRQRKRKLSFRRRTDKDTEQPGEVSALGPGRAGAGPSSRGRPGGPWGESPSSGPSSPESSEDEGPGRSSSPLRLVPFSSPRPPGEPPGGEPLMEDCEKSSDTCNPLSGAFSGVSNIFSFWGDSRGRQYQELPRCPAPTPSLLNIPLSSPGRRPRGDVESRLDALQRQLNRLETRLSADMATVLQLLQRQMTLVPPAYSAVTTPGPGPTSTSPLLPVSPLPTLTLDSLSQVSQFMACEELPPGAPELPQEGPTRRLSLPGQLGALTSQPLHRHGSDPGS
row,Structure (SMILES),"hERG current change (%, negative = inhibition) at 10uM [%]"
1,COc1ccc(/C=N\NC(=S)SCN2C(=O)C3CCC(C)(C2=O)C3(C)C)cc1 (stereo not shown),20.1
2,CCOC(=O)N(NC(=O)C(O)(CC(C)C)CC(C)C)c1ccccc1,6.22
3,O=C(Cn1c(=O)oc2ccccc21)Nc1ccc(F)cc1,9.33
4,CCN(CC)CCNc1ncnc2c1sc1nc(N3CCOCC3)c3c(c12)CC(C)(C)SC3,-71.1
5,CC(=O)Nc1ccc(S(=O)(=O)N2CCN(Cc3nc4sc(C)c(C)c4c(=O)[nH]3)CC2)cc1,-5.44
6,COc1ccc(S(=O)(=O)Nc2nc3ccccc3s2)cc1,9.99
7,S=c1[nH]nc(Cc2c[nH]c3ccccc23)o1,9.56
8,CC(C)CCn1nnnc1C(c1ccc(N(C)C)cc1)N1CCN(C(=O)c2ccco2)CC1 (stereo not shown),-45.3
9,CN(CC#CCN1CCCC1)C(=O)c1cccc(Cl)c1,6.8
10,O=C(c1cc(-c2ccccc2Cl)nc2ccccc12)N1CCC1,-12.4
11,O=C(/C=C/Nc1ccc(F)cc1)c1ccc(Br)cc1,15.1
12,COc1ccc(P(=O)(COc2ccc([N+](=O)[O-])cc2)c2ccc(OC)cc2)cc1,-71
13,CCOc1ccc(-c2noc(CCC(=O)NC3CCCC3)n2)cc1OC,8.47
14,Cc1[nH]nc2c1C(CCc1ccccc1)C(C#N)=C(N)O2 (stereo not shown),-15.2
15,Cc1ccc(C(=O)N/N=C2\SCC(=O)N2c2cc(C)ccc2C)cc1,8.16
16,COC(=O)c1ccc(NC(=O)NCCCl)cc1,18.8
17,COc1cccc(N2CCN(C(=O)CCc3nnc4ccc(N5CCOCC5)nn34)CC2)c1,-7.05
18,Cc1ccc(NC(=O)CS(=O)CC(=O)NCCCc2ccccc2)cc1Cl (stereo not shown),4.17
19,O=c1/c(=C/c2ccc([N+](=O)[O-])cc2)sc2n1CCCN=2,-15
20,CCOc1ccc2[nH]c(C)cc(=O)c2c1,-3.13
21,O=C(/C=C/c1ccco1)Nc1ccc(CN2CCOCC2)cc1,-31.3
22,COc1ccc(N2CC(C(=O)N3CCN(c4ccccc4)CC3)CC2=O)cc1 (stereo not shown),-41.6

row,Structure (SMILES),"hERG current change (%, negative = inhibition) at 10uM [%]"
1,Cc1c(C(=O)O)[nH]c2c1C(=O)CC(c1ccccc1)C2 (stereo not shown),13
2,Cc1ccc(NC(=S)N(CCC(C)C)C(C)c2ccncc2)c(Cl)c1 (stereo not shown),-15.7
3,CC(=O)c1ccc(OCCCC(=O)N2CCN(S(=O)(=O)c3ccc(C(C)C)cc3)CC2)cc1,-10.5
4,COc1ccc(C#Cc2c(-c3ccc(OC)cc3)oc3ccc(-c4ccc5c(c4)OCO5)cc23)cc1,0.687
5,COC(=O)Cn1c(=NC(=O)c2ccc(S(=O)(=O)N3CCOCC3)cc2)sc2cc(S(N)(=O)=O)ccc21,9.18
6,COC(=O)c1sc(-c2ccc(C(C)(C)C)cc2)cc1NC(=O)CCC(=O)O,12.5
7,CC(C)Cn1nc(NC(=O)C(C)(C)C)c2cc3ccccc3nc21,-6.24
8,COc1ccc(-c2csc(N(CCCN(C)C)C(=O)c3ccc(C)cc3)n2)cc1.Cl,-68.2
9,CCOC(=O)c1cnc2c(C(F)(F)F)cccc2c1N1CCOCC1,-26.7
10,O=C(COC(=O)C1CCN(S(=O)(=O)c2cccc3cccnc23)CC1)c1ccc(F)cc1,3.79
11,COc1ccccc1NC(=O)CN1C(=O)NC2(CCCc3ccccc32)C1=O (stereo not shown),1.14
12,O=C(c1cccc(S(=O)(=O)N2CCCCCC2)c1)N1CCN(c2ccccc2)CC1,-68.8
13,Cc1cccc(CCNC(=O)Cn2ncc3c([nH]c4ccc(C)cc43)c2=O)c1,21.2
14,Cc1cc(C)c2oc(C(=O)Nc3nnc(C(C)C)s3)cc(=O)c2c1,10.4
15,Cc1ccc(C(=O)OCC(=O)Nc2sc3c(c2C#N)CCC3)cc1,17.8
16,S=C(NCCc1ccccc1)NN=C1CCCCCC1,6.14
17,CCn1c(=O)[nH]c(=O)c2c(N)c(C(=O)c3ccccc3OC)sc21,-15.2
18,CSc1sc(-c2nnc(SCC(=O)Nc3ccccc3)n2C)c2c1C=CCC2,-2.35
19,Cn1c2ccccc2c2nnc(SCC(=O)Nc3cccc(O)c3)nc21,-45.6
20,COC(=O)c1ccccc1NC(=O)c1ccc(NS(C)(=O)=O)cc1,-36.1
21,N/C(=N\OC(=O)c1cccc(C(F)(F)F)c1)c1cnccn1,16.7
22,Cc1ccc(CNC(=O)c2cnccn2)cc1,-11.5

row,Structure (SMILES),"hERG current change (%, negative = inhibition) at 10uM [%]"
1,CCNS(=O)(=O)c1ccc(NC(=O)Nc2cccc(C(F)(F)F)c2)cc1,-1.07
2,O=C(NCc1ccccc1)c1onc(CSc2ccccn2)c1C(=O)NCc1ccccc1,4.95
3,COc1cccc2c3c(c(C)nc12)CC(C)O3 (stereo not shown),-21.9
4,O=C(CNC(=O)c1cccs1)N/N=C/c1ccc(Cl)cc1,16.1
5,COc1cccc(CNc2nnnn2C)c1OC,18.9
6,COc1ccc(CCNC(=S)NC2CCN(Cc3ccccc3)CC2)cc1,-36.9
7,Cc1c(C)n2c(SCC(=O)N3CCC(C)CC3)nnc2[nH]c1=O,15.3
8,COc1ccc(NC(=O)CN(C)C(=O)Cc2ccc3c(c2)CCC3)cc1,-0.102
9,COc1ccc(N(C)C(=O)c2ccc3nc(-c4ccccc4)c(-c4ccccc4)nc3c2)cc1,-4.99
10,CC(=O)Nc1cccc(NC(=O)c2ccco2)c1,-4.69
11,COc1ccc(/C=C/C(=O)OCC(=O)NCc2ccco2)c(OC)c1,12.8
12,COc1ccccc1Nc1ccc([N+](=O)[O-])cc1N,-6.93
13,O=C(Nc1ccc(C(=O)N2CCC([NH+]3CCCC3)CC2)cc1)c1ccc(Br)o1.O=C(O)C(F)(F)F,5.25
14,COc1cc2c(cc1OC)C1=NC(=O)CN1C(SCc1ccccc1C)=N2,-3.63
15,O=C(NC1CCCCC1)C1CCN(c2nccs2)CC1,4.43
16,CC(=O)Nc1ccc(S(=O)(=O)Nc2cccc(-c3csc(C)n3)c2)cc1,2.34
17,CCOC(=O)c1c(C)oc(/N=C/c2ccccc2O)c1C#N,7.61
18,CCOC(=O)c1oc2ccccc2c1NC(=O)c1cccs1,-2.11
19,O=C(NC1CCCCC1)C(c1ccc2ncccc2c1)N(Cc1ccccc1)C(=O)c1cccs1 (stereo not shown),-60.4
20,CCCC[C@@H](CNC)NC[C@H](Cc1ccc(O)cc1)NCCc1ccc(OCC)cc1,-53.7
21,CCOc1cc(CN2CCN(C(=O)CC(C)C)CC2)ccc1OC.O=C(O)C(=O)O,-10.5
22,CCCNc1cc(=O)n(C)c(=O)n1C,33.8

row,Structure (SMILES),"hERG current change (%, negative = inhibition) at 10uM [%]"
1,CC1Cc2ccccc2N1C(=O)CSc1nc2ccccc2o1 (stereo not shown),-7.78
2,S=C1NCCOCCOCCOCCOCCN1,-8.68
3,COc1ccc2oc(C(=O)NCc3cc(OC)c(OC)cc3OC)c(C)c2c1,0.174
4,CC(=O)c1c(C)[nH]c(C(=O)OCC(=O)Nc2ccc(C)cc2[N+](=O)[O-])c1C,-21.3
5,CCOC(=O)CSc1ncnc2c1cnn2-c1ccccc1,-4.32
6,O=[N+]([O-])c1ccccc1/C=N/n1c(-c2ccccc2)n[nH]c1=S,9.49
7,CC(C)c1nc(CNC(=O)C2CCC(=O)N(CCc3ccc(Cl)cc3)C2)no1 (stereo not shown),-27.6
8,CCN(CC)CCN(C(=O)c1ccc2c(c1)CCCC2)c1nc2ccc(F)cc2s1.Cl,-1.94
9,Cc1cccc(OCc2n[nH]c(=S)n2-c2ccccc2)c1,10.1
10,COc1cccc(N2CCN(C(=O)c3[nH]c(C)c(C(C)=O)c3C)CC2)c1,12.9
11,CCn1c(C(=O)N2CCC(Cc3ccccc3)CC2)cc2sccc21,1.08
12,CCCCCCSc1cc(-c2nc3ccc(C)cn3c2NCc2ccccc2)ccc1OC.O=C(O)C(F)(F)F,21.3
13,O=C(CCCc1cccs1)Nc1nc2c(s1)CCCC2,-10.4
14,O=C1CCC2=C(CCCC2=O)N1,30.2
15,COc1ccc(-n2nc(C(=O)Nc3cc(OC)c(OC)c(OC)c3)c3ccccc3c2=O)c(OC)c1,3.69
16,CCNc1nc(NC(C)(C)C)nc(N2CCCCC2)n1,8.83
17,Cn1c(=O)n(C)c2cc(S(=O)(=O)N3CCOCC3)ccc21,-0.98
18,Cc1cccc(Cc2c(C)nc3nc(SCC(=O)O)nn3c2C)c1,20.8
19,Oc1c(C=C2N=c3ccccc3=N2)sc(=S)n1-c1ccc(F)cc1 [17505669],6.08
20,COC(/C=C/Nc1ccc(C)c(C)c1)=C(C#N)C#N,-25.9
21,CC(=O)Nc1ccc(S(=O)(=O)Nc2ccccc2C(=O)N2CCCCCC2)cc1,6.74
22,O=C(c1cnn2c(C(F)(F)F)cc(-c3cccs3)nc12)N1CCN(C(c2ccccc2)c2ccccc2)CC1,13.3

# From paper PMC4336329 (PLoS ONE, 2015)
